The text below walks through data of article PMC10266789 (The Journal of Clinical Investigation, 2023).

The target in one series is T1, recombinant human SIRT2 (Homo sapiens, UniProt Q8IXJ6).
T1 construct: purified, recombinant SIRT2^2–389, SIRT1^1–747, or SIRT3^1–400 protein (GenScript); purchased GenScript
T1 sequence (Q8IXJ6 2-389): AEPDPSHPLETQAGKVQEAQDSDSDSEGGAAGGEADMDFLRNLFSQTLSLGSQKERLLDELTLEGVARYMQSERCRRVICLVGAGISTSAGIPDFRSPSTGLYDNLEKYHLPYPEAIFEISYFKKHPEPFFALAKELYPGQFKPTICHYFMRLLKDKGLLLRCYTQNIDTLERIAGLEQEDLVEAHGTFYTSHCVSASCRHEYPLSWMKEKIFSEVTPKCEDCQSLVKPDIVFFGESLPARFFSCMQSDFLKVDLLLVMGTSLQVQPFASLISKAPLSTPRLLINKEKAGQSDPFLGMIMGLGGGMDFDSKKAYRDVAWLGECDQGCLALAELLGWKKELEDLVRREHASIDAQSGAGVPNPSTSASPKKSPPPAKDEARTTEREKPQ
In words: SIRT deacylase assay, deacetylation of Ac-H3K9WW peptide, mass spectrometry. Type of series: biochemical.

Series [1] has as its system Zika virus (strain DAK41525). The series is described as follows: microbe, parasite or virus in culture. The conditions noted are these: Fibroblast, read-out: IC50, Zika.
The subject of series [2] is HCMV (strain TB40/E). The following applies: Table 2; for SI CC50/IC50: HCMV/MRC-5.
Another series addresses T2, recombinant human SIRT3 (Homo sapiens, UniProt Q9NTG7).
T2 construct: purified, recombinant SIRT2^2–389, SIRT1^1–747, or SIRT3^1–400 protein (GenScript); purchased GenScript
T2 sequence (Q9NTG7 1-399): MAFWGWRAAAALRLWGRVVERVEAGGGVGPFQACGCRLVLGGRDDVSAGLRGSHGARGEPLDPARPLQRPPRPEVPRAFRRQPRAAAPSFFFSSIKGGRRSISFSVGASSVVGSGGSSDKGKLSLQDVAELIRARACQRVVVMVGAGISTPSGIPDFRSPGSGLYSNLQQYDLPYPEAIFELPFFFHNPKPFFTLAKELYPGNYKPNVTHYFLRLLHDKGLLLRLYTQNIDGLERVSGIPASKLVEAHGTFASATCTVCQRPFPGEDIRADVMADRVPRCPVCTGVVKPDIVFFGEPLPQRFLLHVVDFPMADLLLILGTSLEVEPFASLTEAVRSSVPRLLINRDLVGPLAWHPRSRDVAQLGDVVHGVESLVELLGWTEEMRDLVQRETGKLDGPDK
In words: SIRT deacylase assay, deacetylation of Ac-H3K9WW peptide, mass spectrometry. Type of series: biochemical. The following applies: Figure 1C; n = 3.

Series [3] in a line: Host cell cytotoxicity, MRC-5. The conditions noted are these: human.
Series [4] concerns MRC-5 cells. The series is described as follows: Host cell cytotoxicity, MRC-5.
The subject of series [5] is Junin virus (strain Candid 1). The following applies: Junin/human HFF.
A further series is described as follows: Mouse tolerability. The class given is in vivo. The following applies: 50 mg/kg p.o. b.i.d. for 14 days; NOG mice.
In series [6] the target is T3, SIRT2 demyristoylase activity (Homo sapiens, UniProt Q8IXJ6).
T3 construct: purified, recombinant SIRT2^2–389, SIRT1^1–747, or SIRT3^1–400 protein (GenScript); purchased GenScript
T3 sequence (Q8IXJ6 2-389): T1 sequence (Q8IXJ6 2-389)
The series is described as follows: SIRT2 demyristoylase assay with Myr-H3K9WW peptide. Type of series: biochemical. The conditions noted are these: Supplemental Table 1.

Series [7] concerns c-Myc in MRC-5 human diploid fibroblasts. In words: Western blot of c-Myc in MRC-5 fibroblasts. The class given is cell-based. The conditions noted are these: 72 h.
The subject of series [8] is Respiratory syncytial virus (strain Long). The conditions noted are these: RSV/human MRC-5.
Series [9] deals with Junin virus (strain Candid 1). In words: microbe, parasite or virus in culture. The conditions noted are these: Mammarenavirus juninense, read-out: IC50, Junin.
For series [10], the system named is Respiratory syncytial virus (strain Long). The series is described as follows: microbe, parasite or virus in culture. The following applies: human respiratory syncytial virus, MRC5, read-out: IC50, RSV.
Series [11] has as its system Betacoronavirus 1 (strain OC43). In words: microbe, parasite or virus in culture. The following applies: Betacoronavirus 1, OC43, MRC5, read-out: IC50, HCoV-OC43.
The test system of series [12] is HCMV TB40/E-mCherry-UL99eGFP. In words: HCMV treat-release-infect experiment, infected cell area. Type of series: cell-based, human cytomegalovirus. The conditions noted are these: Human betaherpesvirus 5, read-out: IC50, viral spread after pretreatment.
Series [13] deals with Epstein-Barr virus (EBV; strain Akata).
Series [14] can be described thus: Host cell cytotoxicity, dNHBE. Type of series: cell-based. The following applies: dNHBE cells; human dNHBE; Influenza A assay.
Series [15] has as its system HCMV TB40/E-mCherry-UL99eGFP. The series is described as follows: HCMV treat-release experiment, TCID50 of culture medium. The following applies: cell count, lactate dehydrogenase activity.
For series [16], the system named is HCMV (strain TB40/E). The series is described as follows: microbe, parasite or virus in culture.
The test system of the next series is SIRT2. The conditions noted are these: reported SIRT2 IC50s from literature; cited from earlier work.
In series [17] the test system is MRC-5 cells.

In general, CC50 refers to the concentration at which the toxic effect on the cells reaches its halfway point. Read a low CC50 as greater toxicity to the cells. For orientation: IC90 means the concentration needed for an effect of 90%. The term EC90 denotes the concentration at which the effect reaches the 90% level.

SMILES strings stand for the structures. Like-named read-outs stand apart in the source and are kept apart here.

As to `Cc1cn(-c2ccc3c(c2)CN(c2ncc(Cc4ccc(-n5cccn5)cc4)s2)CC3)c(C)n1` [FLS-359, 7-(2,4-dimethyl-1H-imidazol-1-yl)-2-(5-{[4-(1H-pyrazol-1-yl)phenyl]methyl}-1,3-thiazol-2-yl)-1,2,3,4-tetrahydroisoquinoline], the IC50 on recombinant human SIRT2 (50 μM NAD, Ac-H3K9WW 5 μM, read-out: SIRT2 IC50) is ~2.6 µM; on recombinant human SIRT2 (50 μM NAD, Ac-H3K9WW 50 μM, read-out: SIRT2 IC50), ~5.6 µM; on recombinant human SIRT2 (100 μM NAD, Ac-H3K9WW 5 μM, read-out: SIRT2 IC50) it was ~2.6 µM; on recombinant human SIRT2 (100 μM NAD, Ac-H3K9WW 50 μM, read-out: SIRT2 IC50) it was ~5.5 µM; on recombinant human SIRT2 (200 μM NAD, Ac-H3K9WW 5 μM, read-out: SIRT2 IC50) it was ~3.2 µM; on recombinant human SIRT2 (200 μM NAD, Ac-H3K9WW 50 μM, read-out: SIRT2 IC50) it was ~8.8 µM. The IC50 on recombinant human SIRT2 (500 μM NAD, Ac-H3K9WW 5 μM, read-out: SIRT2 IC50) was ~2.8 µM; on recombinant human SIRT2 (500 μM NAD, Ac-H3K9WW 50 μM, read-out: SIRT2 IC50), ~8.3 µM; on recombinant human SIRT2 (Figure 1C, n = 3, read-out: SIRT2 IC50, deacetylation of Ac-H3K9WW), ~3 µM; at recombinant human SIRT2 (Supplemental Table 1, triplicate, read-out: Deacetylase pIC50 ± SE (converted)) it was 3.16 µM; on recombinant human SIRT2 (Table 2, FLS-359 value from Figure 1, C and D, read-out: SIRT2 IC50) it was 3 µM; on recombinant human SIRT2 (all NAD+ concentrations, peptide 5 μM, read-out: SIRT2 IC50) it was ~3 µM. The IC50 at recombinant human SIRT2 (all NAD+ concentrations, peptide 50 μM, read-out: SIRT2 IC50) was ~7 µM; in series [1] it was 0.4 µM; at recombinant human SIRT3, > 100 µM; in series [6], > 100 µM; in series [9], 3.2 µM; in [10] it was 6.7 µM. In addition, the IC50 in [11] was 1.7 µM; in series [12] it was 4.8 µM; in the series with HCMV (strain TB40/E) [16] (Human betaherpesvirus 5, MRC5, in Homo sapiens, read-out: IC50, HCMV, human MRC-5, Table 1) it was 0.5 µM; with HCMV (strain TB40/E) [16] (Human betaherpesvirus 5, MRC5, read-out: HCMV IC50, Table 2, infected MRC-5 cell area at 7 dpi, n = 2), 0.5 µM. Further, the “increase in SIRT2 IC50 when peptide raised from 5 μM to 50 μM” value at recombinant human SIRT2 (1x Km to 10x Km peptide) was “about 2 fold”. For the same molecule, on recombinant human SIRT2 (Supplemental Table 1, ± SE), the “Deacetylase NTV (Net Terminal Value, percent SIRT2 activity with saturating compound)” value stood at 6.5 ± 4.0%. Further, the “SI CC50/IC50” value is recorded as >31.6 in the series with HCMV (strain TB40/E) [2], >7.8 in [5], >1.9 in series [8] and >26.3 in series [13] (Epstein-Barr/human Akata). Besides, the CC50 at 7 days in series [3] (Host cell CC50, human MRC-5, HCMV assay) was > 15.8 µM; in [3] (MRC-5 CC50, uninfected MRC-5, DAPI cell count after 7-day treatment), > 15.8 µM. The CC50 in series [3] (Host cell CC50, human MRC-5, HCoV-OC43 assay) was > 50 µM; in [3] (Host cell CC50, human MRC-5, RSV assay), > 12.5 µM; in [14], > 100 µM. The “tolerability in dividing MRC-5 cells” value with MRC-5 cells [4] (6 days) was “tolerated”. The “tolerability in confluent MRC-5 cells” value with MRC-5 cells [4] (7 days, counting of nuclei or neutral red uptake) is listed as “well tolerated”. In the series “Mouse tolerability”, the “tolerability (weight, clinical signs)” value is “No weight loss and no adverse clinical signs were observed”. Besides, the c-Myc protein level entry in series [7] was “not changed”. For the same molecule, the “accumulation of EBV BZLF1, BMRF1 and BLLF1 mRNAs” value in [13] (10 μM, qRT-PCR, Akata BL cells induced with anti-IgG) is “inhibited the accumulation”. In [15], the “cellular toxicity at 96 hours after removal of the drug” value was “Minimal cellular toxicity”. Moreover, the concentration for an effect of 90% (IC90) with HCMV (strain TB40/E) [16] (Human betaherpesvirus 5, MRC5, read-out: FLS-359 IC90 for inhibition of HCMV) was 2.06 µM. The EC90 with HCMV (strain TB40/E) [16] (Human betaherpesvirus 5, MRC5, read-out: approximate EC90 against HCMV) was ~5 µM.

Regarding `O=[N+]([O-])c1ccc(Sc2nnc(COc3ccccc3)n2-c2ccccc2)c2ncccc12` [MIND4], the “SI CC50/IC50” value in the series with HCMV (strain TB40/E) [2] was found to be 1.4. Besides, the IC50 in the series with HCMV (strain TB40/E) [2] (read-out: HCMV IC50, infected MRC-5 cell area at 7 dpi, n = 2) was 14.4 µM; in the series with SIRT2, 3.5 µM. In the series with MRC-5 cells [17], the CC50 was determined as 19.8 µM.
